In the antibiotic and cytotoxicity screens of Wong et al. (2023):
Some of the results follow.

Experiments:
[1] = test system: HSkMC (human skeletal muscle cells); assay: cytotoxicity call (relative viability < 0.9); details: 10 µM
[2] = test system: HepG2; assay: cytotoxicity call (relative viability < 0.9); details: 10 µM
[3] = test system: S. aureus RN4220; assay: growth inhibition call (relative growth <= 0.2); details: 50 µM

SMILES | cytotoxicity call [1] | cytotoxicity call [2] | growth inhibition call [3]
CC1=NCCN=C(C)C1N1CCOCC1 | inactive | inactive | inactive
CNC(=O)CN1CCOCC12CCN(c1cc(OC)ncn1)CC2 | inactive | inactive | inactive
Cc1cc(C(C#N)c2ccc(Cl)cc2)c(Cl)cc1NC(=O)c1cc(I)cc(I)c1O (stereo not given) | inactive | inactive | inactive
CCC1(C2=NCCN2)Cc2ccccc2O1.Cl (stereo not given) | inactive | inactive | inactive
Cc1nnc([C@H]2CCCNC2)o1 | inactive | inactive | inactive
C1CO[C@@]2(C1)CCNC2 | inactive | inactive | inactive
O=C1CNC[C@@H]2c3cccc(F)c3CCN12 | inactive | inactive | inactive
C[C@H]1CN([C@@H](C)CO)C(=O)CCCn2cc(nn2)CO[C@@H]1CN(C)C(=O)Oc1ccc2ccccc2c1 | inactive | inactive | inactive
O=C(CCCN1CCC2(CC1)C(=O)N(Cc1cccc(F)c1)CN2c1ccccc1)c1ccc(F)cc1 | inactive | active | inactive
CC1OC(OC2C=C3CCC4C(CCC5(C)C(c6ccc(=O)oc6)CCC45O)C3(C)CC2)C(O)C(O)C1O (stereo not given) | active | active | inactive
Cc1cnc[nH]1 | inactive | inactive | inactive
COc1ccc(OC(=O)N(C)C[C@@H]2OCc3ccccc3-c3c(n(C)c4ccccc34)C(=O)N([C@@H](C)CO)C[C@H]2C)cc1 | inactive | active | inactive
NSC(=S)N1CCCC1 | inactive | inactive | inactive
COc1cc(OC)c(OC)cc1C=O | inactive | active | inactive
C[C@H]1C[C@@H](O)[C@]2(O)[C@@]13CC(=O)OC[C@@]2(C)[C@](C)(O)C(=O)C3 | inactive | inactive | inactive
